Test results reported in PubChem BioAssay AID1346428 (National Center for Advancing Translational Sciences (NCATS), 2018).
“And” between values parts separate entries of the source, which are not always exact repeats. Equal entries are not always repeated. About 1,200 (2.5%) of roughly 48,000 compounds were called active. Not shown: some 2% with an inconclusive outcome.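 The calls were made as follows: active = activation of at least 60% and not above a set upper limit (about 1 call in 100 departs from these limits); inconclusive = activation of 40% to 60%, or above that upper limit; inactive = activation under 40%.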 Some of the results follow.

biological target: Probable G-protein coupled receptor 32 (Homo sapiens) (UniProt O75388); assay: qHTS for Agonists of Human Resolvin D1 Receptor DRV1; conditions: CHO-K1 GPR32 beta-arrestin PathHunter luminescence, 90 min; at 76.9 µM; active compounds read high; zero percent set by DMSO-only wells; also: 0% is about no effect
Sequence of UniProt O75388 (O75388 whole entry, looked up): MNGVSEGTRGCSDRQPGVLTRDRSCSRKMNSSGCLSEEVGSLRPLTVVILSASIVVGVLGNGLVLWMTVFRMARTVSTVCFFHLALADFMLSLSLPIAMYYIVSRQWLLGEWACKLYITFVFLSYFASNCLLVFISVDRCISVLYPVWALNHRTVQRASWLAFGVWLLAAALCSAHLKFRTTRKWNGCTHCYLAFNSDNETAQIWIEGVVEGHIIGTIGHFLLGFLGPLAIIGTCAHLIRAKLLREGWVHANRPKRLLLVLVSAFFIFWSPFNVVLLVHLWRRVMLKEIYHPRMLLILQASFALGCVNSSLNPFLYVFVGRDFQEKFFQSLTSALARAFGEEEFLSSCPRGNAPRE
Summary of the method: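 Luminescent readout of beta-Gal complementation quantifies ligand-induced beta-arrestin association with GPR32 in CHO-K1 cells; 90 min compound incubation at 37 °C, detection 1 h at room temperature.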

activation, active:
COc1cccc(CNS(=O)(=O)c2ccc3c(c2)C(C(C)C)C(=O)N3)c1 (stereo unspecified) 75.8%

activation, inactive:
COc1ccc(-n2c(-c3ccco3)nc3c(cnn3-c3ccccc3Cl)c2=O)cc1 -0.901%
Cc1ccc(Cl)cc1NC(=O)Nc1cccc(OCc2cc(=O)n3ccccc3n2)c1 -0.278%
CC(=O)c1cccc(NS(=O)(=O)c2cc3c(cc2C)N(C(C)=O)CCO3)c1 -10.9%
O=C(CCCc1ccccc1)NC1CC(=O)N(c2ccc(F)cc2)C1 (stereo unspecified) -4.56%
CCc1cccc(NC(=O)c2ccc(NC(=O)N3CCSc4ncccc43)cc2)c1 2.84%
Cc1ccc(NC(=O)N2CCC(CN3CCCC3)CC2)c(C)c1 -18%
Cc1ccc(-c2nc(C(=O)NCc3ccccc3Cl)c3n2CCCCC3)cc1 -11.1%
Cc1ccc2nc(-c3cc(NC(=O)COc4ccc(C)c(C)c4)ccc3Cl)oc2c1 -11.5%
CN1N=C(C(N)=O)CCC1=O 17.9%
Cc1ccc(NC(=O)N2CCN(c3cc(-c4noc(C)n4)ccc3C)CC2)c(F)c1 -2.14%
CCC(=O)Oc1ccc(C2Nc3ccccc3-c3nnc(SC)nc3O2)cc1 (stereo unspecified) 3.36%
Cc1ccc(S(=O)(=O)Nc2cc3c(cc2N2CCOCC2)n(C)c(=O)n3C)cc1 -0.39%
Cc1cccc(NC(=O)C(Cc2ccccc2)NS(=O)(=O)c2ccc3c(c2)c(=O)n(C)c(=O)n3C)c1 (stereo unspecified) -8.89%
Cc1ccc(C(=O)NCC(c2ccc3c(c2)OCO3)N2CCOCC2)cc1 (stereo unspecified) -11.5%
Cc1c(-c2nc(-c3ccc4c(c3)OCO4)no2)nnn1-c1ccc(C(C)C)cc1 -4.41%
CCc1nn(CCCC(=O)N2CCN(c3cccc(OC)c3)CC2)c(=O)c2cc3occc3n12 4.24%
COC(=O)C1CCN(S(=O)(=O)c2ccc(N3CCCCS3(=O)=O)cc2)CC1 14.3%
COC(=O)c1cc(C)nc2c1c(=O)nc(SCc1ccccc1C)n2C1CC1 -22%
O=C1[C@H]2CCCC[C@H]2C(=O)N1CCCCN1CCN(c2nsc3ccccc23)CC1 -53.9%
COc1ccc(CCN2C(=O)c3[nH]nc(-c4ccccc4O)c3C2c2ccc(OC)c(OC)c2)cc1 (stereo unspecified) -25.7%
CCOC(=O)c1c(NC(=O)CSc2cn(CCNC(=O)c3c(F)cccc3F)c3ccccc23)sc2c1CCC2 -7.96%
Cc1ccc(S(=O)Cc2nc(-c3ccc(C(=O)NCc4cccc(C)c4)cc3)oc2C)cc1 (stereo unspecified) -6.33%
O=C(CCn1nc(-c2ccc(Cl)cc2)ccc1=O)NCCc1ccccc1 -6.37%
CC(=O)Nc1c(C)nn(-c2ccccc2)c1N1CCC(C(=O)NCc2ccccc2Cl)CC1 -6.56%
CN(C)S(=O)(=O)c1ccc2c(c1)/C(=C/c1cc3c([nH]1)CCCC3)C(=O)N2 -40.6%
O=C(COc1ccccc1Cl)Nc1ccc2nc(SCC(=O)N3CCCC3)sc2c1 -5.84%
CCCn1c(=O)c2sccc2n2c(CCCC(=O)NCc3ccccc3)nnc12 0.437%
CCOC(=O)COc1ccc(F)cc1C(=O)c1ccn2nc(-c3ccc(Cl)cc3)cc2n1 -7.69%
CCOC(=O)c1noc2ncnc(Nc3cccc(OC)c3)c12 -1.5%
COc1cccc(NC(=O)CSc2nc(-c3ccccc3Cl)nc3c2Cc2c(CO)cnc(C)c2O3)c1 0.281%
CCOc1ccc(-n2c(SCC(N)=O)nc3c(oc4ccccc43)c2=O)cc1 -18.4%
COc1ccc(-c2cc(-c3ccccc3)nc(SCC(=O)Nc3ccccc3F)c2C#N)cc1 -2.72%
Clc1cccc(Cl)c1NC1=NCCN1 -16.3% and 2.45%
Nc1ncc(S(=O)(=O)Nc2ccc(F)cc2F)cn1 -7.23%
COc1ccc(C2C=C(c3ccccc3)Nc3nc(NC(=O)/C=C/c4ccccc4Cl)nn32)cc1 (stereo unspecified) -16.3%
CCc1cnc2c(c1SCC(=O)NCc1ccc(F)cc1)c(=O)n(C)c(=O)n2C -16.2%
CN(C)c1ccc(N=NS(=O)(=O)O)cc1 -90.2%
Cc1cccc(C(=O)Nc2ccc3nc(SCCOc4ccccc4)sc3c2)c1 14.1%
COc1ccc(CCNc2nc(SCc3ccc(Cl)cc3)nc3ccccc23)cc1OC -16.2%
CCCCCOc1ccccc1/C(=C\SC)n1ccnc1 -64.7%
Nc1c(C(=O)Nc2cccc(F)c2)c2ccccn2c1C(=O)c1ccccc1 11.4%
CCOC(=O)c1c(NC(=O)COc2cccc(C)c2C)sc(C(C)=O)c1C -10.9%
COc1ccc(N2CCN(C(c3ccccc3F)c3sc4nc(-c5ccco5)nn4c3O)CC2)cc1 (stereo unspecified) 2.21%
COc1ccc(Cl)cc1NC(=O)Cn1c(=O)c(-c2ccccc2NC(C)=O)nc2ccccc21 -5.7%
Cc1ccc(C)c(Cn2c(C(=O)O)c(CNCc3cccs3)c3ccccc32)c1 -15.3%
COC(=O)c1ccccc1NC(=O)Cn1c(=O)cc(C)c2c(C)nn(C)c21 -7.23%
Cc1cc(C)c2c(c1)c(C)cc1nnc(SCC(=O)c3ccc(F)cc3)n12 -14.4%
CCCCC(=O)N1CCc2cc(OC)c(OC)cc2C1COc1ccc(OC)cc1 (stereo unspecified) -4.89%
COc1ccc(NC(=O)CN2C(=O)COc3ccc(S(=O)(=O)N4CCCCC4)cc32)cc1OC -17%
CN(C)CCNC(=O)C(=O)NCC(c1ccc2c(c1)OCO2)N1CCOCC1 (stereo unspecified) 2.3%
Cc1c(C(=O)O)oc2c1-c1nn(Cc3ccc(Cl)cc3)cc1CC2 -24%
Cc1cc(-c2ccccc2)n2nc(-c3ccccc3)cc2n1 -33.7%
Cc1ccc(NC(=O)CC2Sc3ccc(C(F)(F)F)cc3NC2=O)cc1 (stereo unspecified) 15%
COc1ccccc1C(=O)Nc1c(C(=O)Nc2ccccc2F)oc2ccccc12 0.189%
CCOc1ccc(C(c2c(O)cc(C)n(Cc3ccco3)c2=O)N2CCCCC2)cc1 (stereo unspecified) -9.18%
Cc1ccc2cccc(NC(=O)C(C)Oc3ccc(Cl)cc3Cl)c2n1 (stereo unspecified) -30.2%
O=C(Nc1cccc(-c2nc3ccccc3o2)c1)C(F)(F)F -0.643%
CC(=O)c1ccc(NC(=O)CN(C)S(=O)(=O)c2cnc[nH]2)cc1 7.37%
COc1ccc(CNC(=O)Nc2cn(CC(C)C)c(=O)c3ccccc23)cc1 -30.1%
Cc1ccn2c(Nc3ccc(C(C)C)cc3)c(-c3cccnc3)nc2c1 49.4%
CCN1C(=O)c2ccccc2C1Nc1ccc(OCCN2CCCCC2)cc1 (stereo unspecified) 18.2%
Cc1cc(C)c(NC(=O)CSc2nncn3c2cc2oc(C)cc23)c(C)c1 -4.87%
Cc1ncc(CO)c(C=O)c1O -18.2%
Cc1ccc(OCCSc2nc(C)c(Cc3ccccc3)c(=O)[nH]2)cc1 -6.74%
Cc1cc2oc(C(=O)Nc3ccc(S(=O)(=O)N4CCC(C)CC4)cc3)cc(=O)c2cc1C 5.05%
Cc1ccc(-n2nc3c(N4CCC(C(=O)NC5CCCCC5)CC4)nnc(C)c3c2C)cc1 10.2%
COc1ccc(-c2ccc(CNCCCSc3nnnn3C)o2)cc1Cl -8.66%
COc1ccc(-n2ncc(C(=O)N3CCN(C(=O)c4ccco4)CC3)c2C2CCN(C(=O)OC(C)(C)C)CC2)cc1 14.3%
CC(C)Cc1ccc(S(=O)(=O)NCc2nc3cccnc3n2Cc2ccccc2)cc1 -24.6%
CCCCCOc1ccccc1CN1C(=O)C(=O)c2cc(C)ccc21 -87.6%
COc1ccc(NC(=O)c2c(NCc3ccc(OC)c(OC)c3OC)sc3c2CCC3)c(OC)c1 -17%
Cc1ccc(/C=C/C(=O)N2CCC(c3nc4ccccc4o3)CC2)cc1 -7.42%
Cc1ccc(N(C)S(=O)(=O)c2ccc(-c3coc(C)n3)cc2)cc1 16.9%
COc1ccccc1N1CCN(CCCNC(=O)c2nnc(Cc3ccc(F)cc3Cl)o2)CC1 -7.47%
Cc1ccc(NC(=O)CN2C(=O)COc3ccc(S(=O)(=O)N4CCOCC4)cc32)cc1N(C)C -21.7%
Cc1cccc(-c2noc(-c3ccc(NCc4ccccc4)c([N+](=O)[O-])c3)n2)c1 9.86%
CC1=C(c2ccc(C)c(C)c2)S(=O)(=O)N=C1N1CCC(C(=O)NCc2ccccc2C)CC1 45.1%
Cc1cc(C)c2oc(-c3ccc(NC(=O)COc4ccccc4C)cc3)nc2c1 -22.6%
Fc1ccc(CSc2nncn3c2cc2occc23)c(Cl)c1 -28.4%
CCOc1ccc(CCNC(=O)c2cc3sccc3n2CC)cc1OCC 4.99%
CC1=C(C(N)=O)C(c2cccc(Br)c2)n2nc(SCc3ccccc3Cl)nc2N1 (stereo unspecified) -6.85%
CCc1nc2ccc(C(=O)N3CCN(c4cc(C)ccc4C)CC3)cc2nc1CC -36.6%
COc1cc(C2C(C(=O)Nc3ccc(Cl)cc3)=C(C)Nc3nc(SC)nn32)cc(OC)c1OC (stereo unspecified) 4.35%
Cc1nn(CC(=O)NCCc2ccccc2)c(=O)c2nn(-c3ccccc3)c(C)c12 -15.9%
Cc1ccc(Cn2c(CO)cnc2SCC(=O)NCc2ccccc2Cl)cc1 2.67%
